Measured values reported in the supplement of paper PMC8285479.
Structures can show the parent of a compound that is named as a salt. ± gives the standard deviation of the averaged measurements. The full ranking holds about 1,900 compounds; the median of “normalised cell viability (NPI; 0 = phenylarsine oxide control, 1 = DMSO control)” is about 1, and the lowest 2% start at about 0.039. This is one part of the list.

System: NCI-H1944
Test: normalised cell viability (NPI; 0 = phenylarsine oxide control, 1 = DMSO control) (fraction of DMSO control); NCI-H1944 is a non-small cell lung cancer line; higher = more viable cells (less compound toxicity)
Details: 6 days
[1] = glucocorticoid arm: hydrocortisone 2.75 uM co-treatment, compound 1 µM
[2] = glucocorticoid arm: hydrocortisone 2.75 uM co-treatment, compound 5 µM
[3] = glucocorticoid arm: hydrocortisone 2.75 uM pre-treated 2 days and continued, compound 1 µM
[4] = glucocorticoid arm: hydrocortisone 2.75 uM pre-treated 2 days and continued, compound 5 µM
[5] = glucocorticoid arm: vehicle, compound 1 µM
[6] = glucocorticoid arm: vehicle, compound 5 µM
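Further: CTB read-out in 384-well plates, mean of triplicate wells, normalised per plate against 1 µM phenylarsine oxide and 0.1% DMSO, compounds added 24 h after seeding.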

SMILES | normalised cell viability [1] | normalised cell viability [2] | normalised cell viability [3] | normalised cell viability [4] | normalised cell viability [5] | normalised cell viability [6]
NC1(Cc2ccc(Cl)cc2)CCN(c2ncnc3[nH]ccc23)CC1 | 0.901 ± 0.034 | 0.602 ± 0.08 | 0.934 ± 0.014 | 0.68 ± 0.045 | 0.9813 ± 0.0087 | 0.827 ± 0.068
O=C(O)CCC(C(=O)O)N1C(=O)c2ccccc2C1=O [L-Glutamic acid, N-phthaloyl-] | 1.01 ± 0.01 | 1 ± 0.023 | 0.9973 ± 0.0025 | 1.03 ± 0.023 | 1.003 ± 0.0058 | 1.02 ± 0.017
Cc1cc(C(C)Nc2ccccc2)c2nc(N3CCOCC3)cc(=O)n2c1 (stereo not given) | 0.931 ± 0.038 | 0.796 ± 0.022 | 0.935 ± 0.0092 | 0.875 ± 0.03 | 0.979 ± 0.013 | 0.95 ± 0.017
Cc1cc(Nc2cc(N3CCN(C)CC3)nc(Sc3ccc(NC(=O)C4CC4)cc3)n2)n[nH]1 [VX-680 (MK-0457, Tozasertib)] | 0.849 ± 0.018 | 0.6277 ± 0.0055 | 0.891 ± 0.014 | 0.743 ± 0.0066 | 0.614 ± 0.026 | 0.451 ± 0.0098
Cc1cc(Nc2cc(N3CCN(C)CC3)nc(Sc3ccc(NC(=O)C4CC4)cc3)n2)n[nH]1 [VX-680 (Tozasertib, MK-0457)] | 0.89 ± 0.01 | 0.633 ± 0.02 | 0.9457 ± 0.0051 | 0.794 ± 0.041 | 0.639 ± 0.029 | 0.408 ± 0.031
Clc1ccc2nsnc2c1NC1=NCCN1 [Tizanidine HCl] | 1 ± 0.017 | 0.998 ± 0.02 | 1 ± 0.028 | 1 ± 0.017 | 0.9927 ± 0.0023 | 1.002 ± 0.0072
CC(=O)Nc1nnc(S(N)(=O)=O)s1 [Acetazolamide] | 1 ± 0.017 | 1 ± 0.017 | 0.999 ± 0.0095 | 0.9895 ± 0.0064 | 0.998 ± 0.0027 | 1 ± 0.011
CCCCOc1ccc(C(=O)Nc2ccc(F)cc2F)cc1 | 1.04 ± 0.044 | 0.998 ± 0.013 | 1.04 ± 0.021 | 1.01 ± 0.022 | 1.02 ± 0.015 | 1.006 ± 0.0069
Nc1nc(OCc2cc(Br)cs2)c2[nH]cnc2n1 [Lomeguatrib] | 0.984 ± 0.014 | 0.9813 ± 0.0015 | 0.981 ± 0.02 | 0.98 ± 0.018 | 0.994 ± 0.004 | 1.002 ± 0.0074
NC(N)=N[C@@H](CCC(=O)O)C(=O)O [alpha-Guanidinoglutaric acid] | 1.01 ± 0.01 | 0.983 ± 0.01 | 1.006 ± 0.0063 | 1.01 ± 0.021 | 0.9917 ± 0.0038 | 1.002 ± 0.0072
Cc1ccc(S(=O)(=O)Nc2nc3ccccc3nc2Nc2ccc3nsnc3c2)cc1 | 1.02 ± 0.02 | 1.03 ± 0.037 | 1.013 ± 0.0058 | 1.01 ± 0.028 | 0.998 ± 0.011 | 0.9983 ± 0.0021
CCOC(=O)C1=C(N)Oc2ccc(Br)cc2C1C(C#N)C(=O)OCC (stereo not given) | 0.9913 ± 0.0061 | 1.03 ± 0.01 | 0.991 ± 0.024 | 1.02 ± 0.01 | 1.002 ± 0.0068 | 1.003 ± 0.0058
c1ccc2c(c1)CC(N1CCN(c3cccc4c3OCCO4)CC1)C2 | 0.988 ± 0.019 | 0.9857 ± 0.0084 | 0.995 ± 0.015 | 1.03 ± 0.081 | 1.003 ± 0.0058 | 1.02 ± 0.011
CCN(CC)CCNC(=O)c1ccc(N)cc1 [Procainamide HCl] | 0.9963 ± 0.0029 | 1.03 ± 0.011 | 1.001 ± 0.0081 | 1.03 ± 0.017 | 0.9983 ± 0.0029 | 1.01
CCN(CC)CCNC(=O)c1ccc(N)cc1 [Procainamide hydrochloride] | 0.9837 ± 0.0032 | 0.978 ± 0.017 | 0.872 ± 0.23 | 0.978 ± 0.015 | 0.994 ± 0.006 | 0.9777 ± 0.0063
Cc1ccccc1N1CCN(S(=O)(=O)C[C@]23CC[C@H](C[C@@H]2NC(=O)[C@@H](N)CCS(C)(=O)=O)C3(C)C)CC1 [L-368,899 hydrochloride] | 0.99 ± 0.017 | 0.986 ± 0.024 | 0.998 ± 0.013 | 1.01 ± 0.023 | 0.9847 ± 0.0035 | 0.9993 ± 0.0095
O=C(O)c1ccnc(C(=O)O)c1 [2,4-Pyridinedicarboxylic Acid] | 1 ± 0.022 | 0.999 ± 0.045 | 0.996 ± 0.021 | 1.01 ± 0.024 | 0.996 ± 0.015 | 0.999 ± 0.015
CCc1cc2c(cc1CC)CC(NC[C@H](O)c1ccc(O)c3[nH]c(=O)ccc13)C2 [Indacaterol Maleate] | 0.9913 ± 0.009 | 0.982 ± 0.016 | 0.986 ± 0.024 | 0.956 ± 0.062 | 1.002 ± 0.0068 | 0.9953 ± 0.0045
c1cc(CN2CCCCC2)cc(OCCCNc2nc3ccccc3s2)c1 | 1.01 | 0.9913 ± 0.0076 | 0.897 ± 0.22 | 1.07 ± 0.029 | 1.017 ± 0.0058 | 0.674 ± 0.13
Cc1c(-c2ccc(O)cc2)n(Cc2ccc(OCCN3CCCCCC3)cc2)c2ccc(O)cc12 [Bazedoxifene HCl] | 0.9693 ± 0.0091 | 1.02 ± 0.026 | 0.997 ± 0.024 | 1.02 ± 0.011 | 0.9947 ± 0.0021 | 0.827 ± 0.023
OC[C@H]1O[C@@H](n2cnc3c(N[C@H]4CC5CCC4C5)ncnc32)[C@H](O)[C@@H]1O (stereo not given in full) | 1.01 ± 0.022 | 1.013 ± 0.0058 | 1.01 ± 0.015 | 1.02 ± 0.015 | 0.9913 ± 0.0075 | 0.995 ± 0.0061
Cc1ccc(-c2cc(C(F)(F)F)nn2-c2ccc(S(N)(=O)=O)cc2)cc1 [Celecoxib] | 1.02 ± 0.011 | 1.04 ± 0.025 | 1.02 ± 0.01 | 1.04 ± 0.01 | 0.9907 ± 0.0095 | 1.01 ± 0.012
CC(C)[N+]1(C)[C@@H]2CC[C@H]1C[C@@H](OC(=O)C(CO)c1ccccc1)C2 (stereo not given in full) [Ipratropium bromide] | 1.003 ± 0.0058 | 0.993 ± 0.012 | 0.996 ± 0.0046 | 0.987 ± 0.015 | 0.9977 ± 0.0025 | 1.002 ± 0.0068
CN[C@H]1CC[C@@H](c2ccc(Cl)c(Cl)c2)c2ccccc21 [Sertraline hydrochloride] | 1.023 ± 0.0058 | 1.05 ± 0.015 | 1.02 ± 0.015 | 0.89 ± 0.29 | 1.003 ± 0.0058 | 1.03 ± 0.01
CN[C@H]1CC[C@@H](c2ccc(Cl)c(Cl)c2)c2ccccc21 [Sertraline HCl] | 1.03 ± 0.011 | 1.08 ± 0.025 | 1.03 ± 0.015 | 1.03 ± 0.015 | 0.9963 ± 0.0047 | 0.98 ± 0.013
